From PubChem BioAssay AID889 (National Center for Advancing Translational Sciences (NCATS), 2007)
Hit rate of the full screen: of about 75,000 compounds, about 15 (0.02%) were called active. This list was built around the results that the source calls inconclusive (neither active nor inactive); the mix of calls is not that of the screen. Calls come from the whole dose curve; as a rule, active = well fitted inhibition curve with a large enough effect in the main read-out, with a control signal flat (not every such curve was filed as active); inconclusive = small, poorly fitted or top-dose-only effect, or a change in a side signal; inactive = flat fitted curve, though single readings scatter. Potencies beside an inconclusive call are fits to weak or partial responses and may not hold up. “Side channel” marks fits to a control or component signal instead of the main read-out.

molecular target: Caspase-7 (Homo sapiens) (UniProt P55210); assay: qHTS Assay for Allosteric/Competitive Inhibitors of Caspase-7; conditions: recombinant caspase-7, Ac-DEVD-AFC fluorescence rate; activity change, negative = inhibition: at 57.5 µM (top of the series) unless noted; for activity change, negative = inhibition: % of control where 0% means no effect
Potency is the fitted concentration of half-maximal effect; tags give direction and shape of the fitted curve or compound fluorescence and quenching.

UniProt P55210, sequence (P55210 whole entry, looked up): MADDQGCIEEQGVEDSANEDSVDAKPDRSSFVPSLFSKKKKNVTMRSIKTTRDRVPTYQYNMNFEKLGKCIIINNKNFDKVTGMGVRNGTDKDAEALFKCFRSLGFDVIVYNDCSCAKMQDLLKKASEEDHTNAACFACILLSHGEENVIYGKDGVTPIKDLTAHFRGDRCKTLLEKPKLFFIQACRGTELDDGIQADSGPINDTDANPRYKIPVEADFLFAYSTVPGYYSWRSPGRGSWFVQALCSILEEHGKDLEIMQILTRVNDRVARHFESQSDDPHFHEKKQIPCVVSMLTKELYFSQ

| Compound | Potency | activity change, negative = inhibition |
| --- | --- | --- |
| COc1ccccc1CN(Cc1cc2cc(C)ccc2[nH]c1=O)Cc1nnnn1CC1CCCO1 (stereo not drawn) | inconclusive: 39.8 µM [fluorescent, side channel, single point] | – |
| CN(C)CCC(=O)[C@@]1(O)CC[C@H]2[C@H]3CC=C4C[C@@H](O)CC[C@]4(C)[C@H]3CC[C@]21C | – | inactive: -3.53% [at 11.5 µM] |
| Cc1nc2cc(NC(=O)Nc3nccs3)ccc2n1C | – | inactive: 0.182% |
| O=C(Nc1ccc(Cl)cc1)N1CCC(c2nc(-c3cccs3)no2)CC1 | – | inactive: -1.04% |
| CCOc1ccc2nc(NCCCNS(=O)(=O)c3ccccc3)c(C#N)cc2c1 | inconclusive: 7.94 µM [fluorescent, side channel, partial curve] | – |
| CCNc1ncc2ncc(=O)n(Cc3ccc(F)cc3)c2n1 | inconclusive: 15.8 µM [fluorescent, partial curve] | – |
| COCCNc1nc(-c2cccc(NS(C)(=O)=O)c2)nc2ccccc12 | inconclusive: 20 µM [inhibitor, partial curve] | – |
| COC(=O)C1=CN(C)C=C(C(=O)OC)C1c1ccccc1Cl | inconclusive: 5.01 µM [fluorescent, side channel, partial curve] | – |
| COCCNc1c(-c2ccc(O)cc2)nc2ccc(Cl)cn12 | inconclusive: 39.8 µM [fluorescent, single point] | – |
| Cc1cc2nc3c(=O)[nH]c(=O)nc-3n(C[C@H](O)[C@H](O)[C@H](O)CO)c2cc1C | inconclusive: 31.6 µM [fluorescent, side channel, partial curve] | – |
| CCNc1ncc2nc(CCc3ccccc3)c(=O)n(-c3ccccc3)c2n1 | inconclusive: 3.16 µM [fluorescent, full curve] | – |
| COc1ccc(OC)c(Nc2cc(C(=O)NCCCN3CCOCC3)c3ccccc3n2)c1 | – | inactive: -4.68% |
| Cc1cc(C)c(C#N)c(SCC(=O)CC(=O)OC(C)C)n1 | – | inactive: -2.14% |
| COCC(=O)Nc1nc2n(n1)C(c1ccccc1)CC(c1ccc(OC)cc1)N2 (stereo not drawn) | inconclusive: 31.6 µM [fluorescent, single point] | – |
| CCCCc1cc(=O)oc2c(CN3CCCC3)c(O)c(Cl)cc12 | inconclusive: 15.8 µM [fluorescent, partial curve] | – |
| COc1ccc(CCNc2oc(Cc3cccc4ccccc34)nc2C#N)cc1OC | – | inactive: -6.54% |
| O=c1[nH]c2cc3c(cc2cc1CN(CCCO)Cc1nnnn1Cc1ccc(F)cc1)OCO3 | inconclusive: 31.6 µM [fluorescent, single point] | – |
| CCNc1ncc2nc(-c3ccc(F)cc3)c(=O)n(-c3ccccc3)c2n1 | inconclusive: 1.58 µM [fluorescent, side channel, full curve] | – |
| Cc1ccc(N2C(=O)[C@@H]3[C@H](C2=O)C2c4ccccc4C=CN2[C@@H]3C(=O)c2ccco2)c(C)c1 (stereo partly drawn) | inconclusive: 10 µM [inhibitor, partial curve] | – |
| Cc1noc(C)c1-c1ccc2ncnc(NCc3cccs3)c2c1 | inconclusive: 25.1 µM [inhibitor, single point] | – |
| CN(C(=O)c1ccccc1)c1nc2ccccc2s1 | – | inactive: -0.766% |

| Compound | Potency | activity change, negative = inhibition |
| --- | --- | --- |
| COc1cc2ncnc(Nc3cccc(Br)c3)c2cc1OC | – | inactive: -1.93% |
| COc1cccc(C2=CC(c3cccc(OC)c3OC(F)F)n3nnnc3N2)c1 (stereo not drawn) | inconclusive: 31.6 µM [inhibitor, single point] | – |
| CN(C(=O)c1ccc(NC(=O)C2CC=CCC2C(=O)O)cc1)c1ccccc1 (stereo not drawn) | – | inactive: -1.38% |
| COc1ccc2[nH]c(=O)c(CN(Cc3nnnn3Cc3ccc(F)cc3)CC3CCCO3)cc2c1 (stereo not drawn) | inconclusive: 15.8 µM [fluorescent, side channel, partial curve] | – |
| Cn1c(=O)c(CCc2ccccc2)nc2cnc(Nc3ccccc3)nc21 | inconclusive: 3.16 µM [fluorescent, side channel, partial curve] | – |
| Cc1c(C2Nc3ccccc3NC3=C2C(=O)CC(C)(C)C3)cnn1C (stereo not drawn) | inconclusive: 39.8 µM [fluorescent, single point] | – |
| O=C(O)CCc1ccc(-c2cccs2)n1CC1CCCO1 (stereo not drawn) | inconclusive: 25.1 µM [fluorescent, partial curve] | – |
| CC1=CC(C#N)(C#N)C(C#N)(C#N)C(c2ccccc2)N1 (stereo not drawn) | inconclusive: 25.1 µM [inhibitor, single point] | – |
| COc1ccc(C(C)=O)c(Oc2nc(CN3CCOCC3)nc3scc(-c4cccs4)c23)c1 | inconclusive: 3.16 µM [inhibitor, partial curve] | – |
| N=c1c(C(=O)NCc2ccc3c(c2)OCO3)cc2c(=O)n3ccccc3nc2n1Cc1cccnc1 | inconclusive: 25.1 µM [fluorescent, partial curve] | – |
| CCCn1c(=O)c2ccccc2n2c(SCCOc3ccccc3)nnc12 | – | inactive: -0.806% |
| CCOC(=O)c1sc(NC(=O)c2ccc3ncsc3c2)nc1C | inconclusive: 12.6 µM [fluorescent, side channel, partial curve] | – |
| COc1ccc(C2C=C(c3ccc(Br)cc3)Nc3nc(N4C(=O)CCC4=O)nn32)cc1 (stereo not drawn) | inconclusive: 20 µM [fluorescent, partial curve] | – |
| CC(=O)Oc1cc2oc(=O)c3c(c2cc1Cl)CCC3 | inconclusive: 12.6 µM [fluorescent, partial curve] | – |
| CC(C)N(C(=O)Nc1ccc2nccnc2c1)C(C)C | inconclusive: 25.1 µM [fluorescent, side channel, partial curve] | – |
| CCOC(=O)C1CCCN(c2nc3ccccc3nc2C(C#N)C(=O)OCC)C1 (stereo not drawn) | inconclusive: 31.6 µM [inhibitor, single point] | – |
| COc1ccc(CNC(=O)C(C#N)c2nc3ccccc3nc2N2CCCC2)cc1 (stereo not drawn) | inconclusive: 25.1 µM [fluorescent, partial curve] | – |
| CCOC(=O)c1ccccc1NC(=O)Cn1c(-c2nonc2N)nc2ccccc21 | – | inactive: -4.77% |
| Cc1nc(NC2CCCCC2)c2nc(-c3ccccc3)n(C(C)CN(C)C)c2n1 (stereo not drawn) | – | inactive: 0.876% |
| COc1ccc(-n2c(=O)cnc3cnc(N4CCNCC4)nc32)cc1 | inconclusive: 15.8 µM [fluorescent, partial curve] | – |
| CCN(CC)CCCn1c(-c2ccccc2)nc2c(N(CCOC)CCOC)nc(C)nc21 | – | inactive: -0.098% |

| Compound | Potency | activity change, negative = inhibition |
| --- | --- | --- |
| O=c1c(-c2cc(F)cc(F)c2)nc2cnc(N3CCNCC3)nc2n1-c1ccccc1 | inconclusive: 6.31 µM [fluorescent, side channel, partial curve] | – |
| CCN(CC)c1ccc(-c2nn3c(-c4ccccc4OC)nnc3s2)cc1 | inconclusive: 31.6 µM [fluorescent, single point] | – |
| O=C1C2=CC[C@H]3C(=O)N(c4cccc(Oc5ccccc5)c4)C(=O)[C@@H]3[C@@H]2[C@H](O)[C@@H]2O[C@H]12 | – | inactive: -6.6% [at 11.5 µM] |
| CCNc1ncc2nc(-c3cn(C)c4ccccc34)c(=O)n(CCC#N)c2n1 | inconclusive: 5.01 µM [inhibitor, partial curve] | – |
| COCCNC(=O)C(C#N)c1nc2ccccc2nc1N1CCCCCC1 (stereo not drawn) | inconclusive: 15.8 µM [fluorescent, partial curve] | – |
| COC(=O)[C@H]1C[C@@H]1[C@H](NC(C)=O)c1ccccc1 | – | inactive: 4.49% |
| N#CC(C(=O)NCc1ccccc1)c1nc2ccccc2nc1N1CCCC1 (stereo not drawn) | inconclusive: 25.1 µM [inhibitor, single point] | – |
| O=C(CN1C(=O)c2cccc3cccc1c23)NCC1CCCO1 (stereo not drawn) | inconclusive: 25.1 µM [fluorescent, partial curve] | – |
| CCN1C(=O)[C@H]2[C@H]3[C@H](O)[C@H](O)C/C(=N/O[C@@H]4O[C@H](COC(C)=O)[C@@H](OC(C)=O)[C@H](OC(C)=O)[C@H]4OC(C)=O)[C@@H]3CC[C@@H]2C1=O | – | inactive: 0.312% [at 11.5 µM] |
| COc1cccc(Cn2c(=O)c(-c3cccs3)nc3cnc(N(C)C)nc32)c1 | inconclusive: 3.98 µM [fluorescent, side channel, full curve] | – |
| CCN1CCN(c2nc(-c3cccnc3)nc3ccccc23)CC1 | – | inactive: 2.52% |
| CN1CCN(c2ncc3nc(-c4cn(C)c5ccccc45)c(=O)n(CCC#N)c3n2)CC1 | inconclusive: 10 µM [fluorescent, side channel, partial curve] | – |
| O=S(=O)(Nc1ccc(Cl)cc1Cl)c1cc(Cl)ccc1Cl | – | inactive: -2.45% |
| CN1CCN(S(=O)(=O)c2ccc(=O)[nH]c2)CC1 | inconclusive: 12.6 µM [fluorescent, side channel, partial curve] | – |
| CN(C)c1ncc2nc(-c3ccc(F)cc3)c(=O)n(CCC#N)c2n1 | inconclusive: 2 µM [fluorescent, side channel, full curve] | – |
| COc1ccc(-n2c(=O)c(-c3ccc(F)cc3)nc3cnc(N4CCOCC4)nc32)cc1 | inconclusive: 3.16 µM [fluorescent, full curve] | – |
| CC(=O)C1=C(C)NC(SCC(=O)c2ccc(F)cc2)=C(C#N)C1c1ccco1 (stereo not drawn) | inconclusive: 31.6 µM [fluorescent, single point] | – |
| O=C(NC12CC3CC(CC(C3)C1)C2)c1cc2nc(-c3ccco3)cc(C(F)(F)F)n2n1 | inconclusive: 12.6 µM [fluorescent, partial curve] | – |
| CCn1c(CSc2nccn2C)nc2cc(C(=O)O)ccc21 | inconclusive: 31.6 µM [fluorescent, single point] | – |
| COc1ccc(-c2cnc(SCC(=O)Nc3ccc4c(c3)OCO4)n2Cc2ccco2)cc1 | – | inactive: -8.18% |
| O=C(Nc1cccc2c1C(=O)NC2=O)c1ccc(S(=O)(=O)N2CCCC2)cc1 | inconclusive: 12.6 µM [fluorescent, side channel, partial curve] | – |
